Assay results from the RNAGym collection of RNA variant scans (doi:10.7554/elife.90254).
Read counts are not given, so values of variants with three or more changes are uncertain.

B1: OR4K15 (parent)
chain: GUUAACGGUCAUAGGCCAUGGAAACUAGGAGCACCAUUUCGCUGCCAGUGAAGAAAUGAACAAAGAAAAUCUGGGCCAGGCAGGCAUCAAAAGAAAUAGUCUUGCGCUCAACCAGAAAGUCUGUAAUCAUUUUAAGGGUA

Variants of: B1
Assay: self-cleavage, relative activity (ratio to wild type); higher = more cleavage; in vitro, sequencing; the parent is a self-cleaving ribozyme

Row | Variant | self-cleavage
1 | GUUAACGGUCAUAGGCCAUGGAAACUAGGAGCACCAUUUCGCUGCCAGUGAAGAAAUGAACAAAGGAAAUCUGGGCCUGGCAGGCAUCGAAAGAAAUAGUCUUGCGCUCAACCAGAAAGUCUGUAAUCAUUUUAAGGGUA [A66G A78U A89G] | 0.35
2 | GUUAACGGUCAUAGGCCAUGGAAACUAGGAGCACCAUUUCGCUGCCAGUGAAGAAAUGAACAAAGGAAGUCUGGGCCCGGCAGGCAUCAAAAGAAAUAGUCUUGCGCUCAACCAGAAAGUCUGUAAUCAUUUUAAGGGUA [A66G A69G A78C] | 0.43
3 | GUUAACGGUCAUAGGCCAUGGAAACUAGGAGCACCAUUUCGCUGCCAGUGAAGAAAUGAACAAAGGAAAUCUGGGCCAGGCAGGCGUCAAAAGAAAUAGUCUUGUGCUCAGCCAGAAAGUCUGUAAUCAUUUUAAGGGUA [A66G A86G C105U A111G] | 0.04
4 | GUUAACGGUCAUAGGCCAUGGAAACUAGGAGCACCAUUUCGCUGCCAGUGAAGAAAUGAACAAAGGAAAUCUGGGCCAGGCAGGCAUCAAAAGAAGUAGUCUUGCGCCCAUCCAGAAAGUCUGUGAUCAUUUUAAGGGUA [A66G A96G U108C A111U A125G] | 0
5 | GUUAACGGUCAUAGGCCAUGGAAACUAGGAGCACCAUUUCGCUGCCAGUGAAGAAAUGAACAAAGGAAAUCUGGGCCAGGCAGGCAUCAAAGGAAAUAGUCUUGCGCUCAACCAGAAAGUCUGUAAUCAUUUUAGGGGUA [A66G A92G A135G] | 2.03
6 | GUUAACGGUCAUAGGCCAUGGAAACUAGGAGCACCAUUUCGCUGCCAGUGAAGAAAUGAACAAAGGAAAUCUGGGCCAGGCGGGCAUCAAAAGAAAUAGUCUUGCGCUCAACCAGAAAGUCUGUAAUCAUCUUAAGGGUA [A66G A82G U131C] | 0.26
7 | GUUAACGGUCAUAGGCCAUGGAAACUAGGAGCACCAUUUCGCUGCCAGUGAAGAAAUGAACAAAGGAACUCUGGGCCAGGCAGGCAUCUAAAGAAAUAGUCUUGCGCUCAACCAGAAAGUCUGUAAUCAUUUUAAGGGUA [A66G A69C A89U] | 1.76
8 | GUUAACGGUCAUAGGCCAUGGAAACUAGGAGCACCAUUUCGCUGCCAGUGAAGAAAUGAACAAAGGAAAUCUGGGCCAGGCAGGCAUCAAAAGAAAUGGUCUCGCGCUCAACCAGAAGGUCUGUAAUCAUUUUAAGGGUA [A66G A98G U103C A118G] | 0.03
9 | GUUAACGGUCAUAGGCCAUGGAAACUAGGAGCACCAUUUCGCUGCCAGUGAAGAAAUGAACAAAGGAAGUCUGGGCCAGGCAGGCAUCAAAAGAAAUAGCCUUGCGCUCAACCAGAAAAUCUGUAAUCAUUUUAAGGGUA [A66G A69G U100C G119A] | 2.39
10 | GUUAACGGUCAUAGGCCAUGGAAACUAGGAGCACCAUUUCGCUGCCAGUGAAGAAAUGAACAAAGGAAGUCUGGGCCAGGCAGGCAUCAAAAGAAAUAGUCUUGCGCUCAACCAGAGAGUCUGUAAUCAUUUUAAGGGUA [A66G A69G A117G] | 0.78
11 | GUUAACGGUCAUAGGCCAUGGAAACUAGGAGCACCAUUUCGCUGCCAGUGAAGAAAUGAACAAAGGAAGUCUGGGCCAGGCAGGCAUCAAAAGAAAUAGUCUUGCGCUCAACCAGAAAGUCUGUAAUCCUUUUAAGGGUA [A66G A69G A129C] | 0.9
12 | GUUAACGGUCAUAGGCCAUGGAAACUAGGAGCACCAUUUCGCUGCCAGUGAAGAAAUGAACAAAGGAAAUCUGGGCCAGGCAGGCAUCAAAUGAAAUAGUCUUGCGCUCAACCAGAGAGUCUGUAAUCAUUUUAAGGGUA [A66G A92U A117G] | 2.53
13 | GUUAACGGUCAUAGGCCAUGGAAACUAGGAGCACCAUUUCGCUGCCAGUGAAGAAAUGAACAAAGGAAAUCUGGGCCAGGCAGGCAUCAAAAGAAAUAGUCUUGCGCUCAACCAGAAGGUCUGAAAUCAUUUUAAGGGUA [A66G A118G U124A] | 0.89
14 | GUUAACGGUCAUAGGCCAUGGAAACUAGGAGCACCAUUUCGCUGCCAGUGAAGAAAUGAACAAAGGAAAUCUGGGCCAGGCAGGCAUCAAGAGGAAUAGUCUUGCGCUCAACCAGAAAGUCUGUAAUCAUUUUAAGGGUA [A66G A91G A94G] | 1.6
15 | GUUAACGGUCAUAGGCCAUGGAAACUAGGAGCACCAUUUCGCUGCCAGUGAAGAAAUGAACAAAGGAAAUCUGGGCCAGGCAGGCAUCAAAAGAAAUAGUCUUGCGCUCAACCAGAAGGUCCGUAAUCAUUUUAAGGGUA [A66G A118G U122C] | 1.23
16 | GUUAACGGUCAUAGGCCAUGGAAACUAGGAGCACCAUUUCGCUGCCAGUGAAGAAAUGAACAAAGGAAAUCUGGGCCGGGCAGGCAUCAAAAGAAAUAGUCUUGCGCUCAACCAGAAAGUCUGUAAUCAUUUUACGGGUA [A66G A78G A135C] | 0.06
17 | GUUAACGGUCAUAGGCCAUGGAAACUAGGAGCACCAUUUCGCUGCCAGUGAAGAAAUGAACAAAGGAAAUCUGGGCCAGGCAGGCAUCAAAGGAAAUAGUCUUGCGCUCAACCAGAAAGCCUGUAAUCAUUUUAAGGGUA [A66G A92G U120C] | 1.47
18 | GUUAACGGUCAUAGGCCAUGGAAACUAGGAGCACCAUUUCGCUGCCAGUGAAGAAAUGAACAAAGGAAAUCUGGGCCGGGCAGGCAUCAAAAGAAAUAGUCUUGCGCUCAACCAGAAAGUCUGUAAUCAUUAUAAGGGUA [A66G A78G U132A] | 0.15
19 | GUUAACGGUCAUAGGCCAUGGAAACUAGGAGCACCAUUUCGCUGCCAGUGAAGAAAUGAACAAAGGAAAUCUGGGCCAGGCAGGCAUCAAAAGAGAUAGUCUCGCGCUCAACCAGAAAGUCUGUAAUCAUUUUAAGGGUA [A66G A95G U103C] | 1.49
20 | GUUAACGGUCAUAGGCCAUGGAAACUAGGAGCACCAUUUCGCUGCCAGUGAAGAAAUGAACAAAGGAAAUCUGGGCCAGGCAGGCAUCAGAAGAAAUAGUCUUGCGCUCAACCAGAAAGUCUGUAAACAUUUUAAGGGUA [A66G A90G U127A] | 2.36
21 | GUUAACGGUCAUAGGCCAUGGAAACUAGGAGCACCAUUUCGCUGCCAGUGAAGAAAUGAACAAAGGAAGUCUGGGCCAGGCAGGCAUCAACAGAAAUAGUCUUGCGCUCAACCAGAAAGUCUGUAAUCAUUUUAAGGGUA [A66G A69G A91C] | 1.36
